Reference: the RNAGym collection of RNA variant scans (doi:10.1073/pnas.2313332121)
Variants at the background level are over-represented here.

B1: TPR 5TU (parent)
chain: GGAUCUUCUCGAUCUAACAAAAAAGACAAAUCUGCCACAAAGCUUGAGAGCAUCUUCGGAUGCAGAGGCGGCAGCCUUCGGUGGCGCGAUAGCGCCAACGUUCUCAACUAUGACACGCAAAACGCGUGCUCCGUUGAAUGGAGUUUAUCAUG

Variants of: B1
Assay: polymerase ribozyme fitness, log enrichment relative to wild type (log ratio); higher = more active; in vitro selection for triplet polymerase activity
How it was run: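 After PCR construction and transcription, each subunit's mutant library from a heterodimeric triplet polymerase ribozyme was annealed with a biotinylated primer, the partner subunit and triplets. Incubation was frozen, at −7 °C, and extended constructs were gel-excised, bound to streptavidin beads and amplified by RT-PCR, in one selection round done in triplicate. Fitness is the logarithm of a genotype's enrichment divided by that of the wild type, from inverse-variance-weighted replicate averages of Illumina-sequenced inputs and outputs. The base of the logarithm is 2, and genotypes needed ≥10 input reads and ≥1 read per output.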

Polymerase ribozyme fitness (log ratio), -1.7:
A52G C63U C93U
U53A C95A C125U

Polymerase ribozyme fitness (log ratio), -0.512:
A52G G84A G136A

Polymerase ribozyme fitness (log ratio), -2.2:
U53A C54G

Polymerase ribozyme fitness (log ratio), -4.19:
U53A A66C

Polymerase ribozyme fitness (log ratio), -2.31:
U53A G58A G80A G81A C87U

Polymerase ribozyme fitness (log ratio), -3.14:
A52U A89G

Polymerase ribozyme fitness (log ratio), -2.19:
U53A C76A

Polymerase ribozyme fitness (log ratio), 0.504:
U53A G141U

Polymerase ribozyme fitness (log ratio), -0.303:
U53A G117A

Polymerase ribozyme fitness (log ratio), -0.592:
A52U G136A

Polymerase ribozyme fitness (log ratio), -3.78:
A52U G83A C95U

Polymerase ribozyme fitness (log ratio), -0.931:
U53A C87U

Polymerase ribozyme fitness (log ratio), -2.45:
U53A U56A

Polymerase ribozyme fitness (log ratio), -2.58:
A52G G71U

Polymerase ribozyme fitness (log ratio), -2.75:
U53A C54A A147C

Polymerase ribozyme fitness (log ratio), -3.86:
A52G C54G G67C G81A C95G

Polymerase ribozyme fitness (log ratio), -1.61:
U53A G94A

Polymerase ribozyme fitness (log ratio), 0.733:
U53A U55G C57A

Polymerase ribozyme fitness (log ratio), -2.55:
A52G A150G
A52G G83C C105A

Polymerase ribozyme fitness (log ratio), -3.02:
U53A A122G U134A

Polymerase ribozyme fitness (log ratio), -0.238:
U53A G59C C85U U135A

Polymerase ribozyme fitness (log ratio), -3.11:
U53A G80A U109A C123U A142G

Polymerase ribozyme fitness (log ratio), -2.15:
A52G A73U G84A

Polymerase ribozyme fitness (log ratio), -1.85:
U53A C96U

Polymerase ribozyme fitness (log ratio), 0.243:
A52U C116A

Polymerase ribozyme fitness (log ratio), -3.54:
U53A A97C A113G

Polymerase ribozyme fitness (log ratio), -2.92:
A52U C96A

Polymerase ribozyme fitness (log ratio), -1.6:
U53A C76U G83A

Polymerase ribozyme fitness (log ratio), -0.583:
U53A A97C

Polymerase ribozyme fitness (log ratio), -2.61:
U53A G83C

Polymerase ribozyme fitness (log ratio), -2.51:
U53A U55A C57A C85G A122G

Polymerase ribozyme fitness (log ratio), ≤ -4.2:
A52C U56A C85G U104G U127A
A52C U56A G58A G67A G94A A97G
A52C U61C A73G C85U U135A
A52C U78C G117C C149G
A52C U78G G88U A113U A115U C118U A137C A150U
A52G A60G A89G A113U C149G
A52G A66C C76G
A52G A66C G86C U127C
A52G A66C G88U C93G C95A G112A G133U G141U U146A
A52G A107U A137C U144C
A52G C54U A89U A91U C118U
A52G C54U C95U U101A U102C A110U A142C A147C
A52G C75A A91G C149A
A52G C75A U82A C95A
A52G C76A C96U A115G G117U
A52G C85A G140U
A52G C87G A98C A122U U145C
A52G C87U C108G G117A
A52G G58C C79U A98U U101G C108A
A52G G58U G74C A147C
A52G G59C C75U C87U U90G C95A G117C A147U
A52G G59C C87A U135A U148A
A52G G62C C79G A89U G94C U104G
A52G G65C
A52G G68U C99G
A52G G74C C96U U144G
A52G G81C G88U C114U U134C G140C
A52G G84C G92U C96A A115G C149U
A52G G84U U127G
A52G G88A C95U A122U G136C
A52G G88A C118A C123U G141C
A52G G88U U90G U145G
A52G G100U A106U
A52G G136C A137C C149U U151G
A52G U53A A73G C87G C93A A115U
A52G U53A C75G C85U C131A
A52G U53A C96A G133U
A52G U53A G67U G81U C85U
A52G U55A A66C C79A C85A
A52G U55A A91C A97U G112A A150U
A52G U56A A91U G140A
A52G U56A G58A U77A C95A A137G
A52G U56G C87U A120G U134G G140C U148A
A52U A60G C108U A150C
A52U A73G U102C
A52U A89C C96G C105G
A52U C54A G70A A89G G92C A119C G126A G141A
A52U C54U G58C A91C G117C U148G
A52U C54U G84A C85A G152U
A52U C57U A98U C108G
A52U C57U C76U A121U A122G U151G
A52U C75U C87A C105G A137G U145C
A52U C76U G140C
A52U C85A
A52U C87A
A52U C87A C93G
A52U C87A U102G
A52U C87G C149G G152C
A52U C93A U139G
A52U C96U A107G G136U
A52U G59U A60C C93U
A52U G67A G68A G83A C103G
A52U G67U C85A C125G
A52U G68U C87A U102G C108G G141C A150C
A52U G80A A89G G94A A110U U135G
A52U G83A C108G C129U
A52U G84U G86A A91U A121U
A52U U53G G84U C85A U148A
A52U U55A A66G C75G G84C U146G
A52U U56A C79G C105A
A52U U139A U146C
U53A A60C A64G C85G A97U A106U
U53A A64G A91G C108U
U53A A66G G88U C93G C149G
U53A A66U U78A C87U G94C
U53A A73U C87G
U53A A91U U102G G133U G141A
U53A A97U C132U G133C U139C
U53A C54A G65U G86U A91U
U53A C54A G70U C85G G124C
U53A C54A G74A C76U G88A C95G A121U U146C
U53A C54U G80C G92U G126A C131A
U53A C57A U151G
U53A C57U C87G G124A U135A
U53A C57U C93U U111G G112C G136A U146A
U53A C69U G83A C85U A98G U111C G126C G141A
U53A C76A C132G U151C
U53A C79A A91U
U53A C79A G86U A91C G128A
U53A C79U A89G U134G
U53A C79U C93U A97U C108U C149A
U53A C79U U101A
U53A C85U C103G
U53A C85U C103G A138G
U53A C87A C95U C99G C116A A150U
U53A C87A C95U C105U A122G G152U
U53A C87G A89G C114U A115G G143C
U53A C93U A97U U101C G143C
U53A C93U G140C
U53A C96U C99U G143C
U53A C99G A106U U127G C149U
U53A G58A A73U C75A A89U G92U A110U G126U G140A A147U
U53A G58C C75G C93A U148G
U53A G59A G83A C116U C125A U146G
U53A G59C C76G C85U A89C A97C A107U G117U G133A U139G
U53A G62C C87A C116A G136U U139C U148C
U53A G65C C87A G92A C116U
U53A G68A A73G C85U C114U A115U
U53A G70A C99A G124C
U53A G80C A106C C125U
U53A G80C C93U U148C
U53A G81U G88A A115G A147U
U53A G84A U151C
U53A G84C C99A U111A
U53A G86C C103G
U53A G88C A142U
U53A U55A A60U A66G C69G U78A C93U A150U
U53A U55G C93U A97U A106U G141C C149A
U53A U56A G68A C96A U104G C105G G117C G133A G136A U139G U145A A150C
U53A U61G C103U A107G

Polymerase ribozyme fitness (log ratio), -3.39:
A52G G83U U101A A115U

Polymerase ribozyme fitness (log ratio), -2.62:
A52U U82G U135G A150U

Polymerase ribozyme fitness (log ratio), -2.02:
A52G U53A A89C C93U

Polymerase ribozyme fitness (log ratio), -2.33:
A52U G83A C118U A121C

Polymerase ribozyme fitness (log ratio), -1.78:
A52U G59A A98G C131U

Polymerase ribozyme fitness (log ratio), -2.24:
U53A G62A G86U

Polymerase ribozyme fitness (log ratio), -1.24:
A52G G141A

Polymerase ribozyme fitness (log ratio), -1.34:
U53A C75U

Polymerase ribozyme fitness (log ratio), -0.764:
A52G U78C

Polymerase ribozyme fitness (log ratio), -1.4:
A52G G62A C85U

Polymerase ribozyme fitness (log ratio), -3.33:
U53A C72U A97G U134A

Polymerase ribozyme fitness (log ratio), -0.163:
A52G A73G C85U

Polymerase ribozyme fitness (log ratio), -3.95:
A52G U56G C85A C131U A137G

Polymerase ribozyme fitness (log ratio), -3.41:
U53A G100U
